Test results taken from the supplement of paper PMC8007513.
Where a name gives a salt, the structure may show the parent alone. ± gives the standard error. Hit rate of the full screen: of about 1,300 compounds, about 130 (10%) showed an effect of 50% or more. The list shows a part of the results, in another mix than the full data.

Test system: Trichoderma virens ATCC 9645
Experiment: growth yield (OD600) with compound + IPBC relative to untreated control; higher = less growth inhibition
Settings: compound concentration: 100 uM, IPBC concentration: 200 ng/ml
Outline: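 A biocide at 200 ng ml^−1 was co-applied to some wells, and library compounds were present in all test wells at 100 μM final. The wells held 100 μl of Trichoderma virens ATCC 9645 spores at 15,000 spores ml^−1 in potato dextrose broth, grown at 30 °C in 96-well plates, with OD600 read at 40 h and 72 h. Results are relative growth against the control without either agent, averaged across duplicate screens.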

Compound COc1nc(N)nc2c1ncn2[C@@H]1O[C@H](CO)[C@@H](O)[C@@H]1O [Nelarabine] + CCCCNC(=O)OCC#CI [3-iodo-2-propynyl butylcarbamate (IPBC)] has a growth yield (40 h) of 92.6 ± 7.2% and a growth yield (72 h) of 94 ± 4.4%.
Cn1c(=O)c2c(ncn2CCO)n(C)c1=O [Etofylline] + CCCCNC(=O)OCC#CI [3-iodo-2-propynyl butylcarbamate (IPBC)] gave a growth yield (40 h) of 96.9 ± 3.8% and a growth yield (72 h) of 100 ± 1.8%.
With CC(C)NCC(O)c1cc(O)cc(O)c1 (configuration not stated) [Metaproterenol sulfate, orciprenaline sulfate] + CCCCNC(=O)OCC#CI [3-iodo-2-propynyl butylcarbamate (IPBC)] the growth yield (40 h) was 85.14 ± 0.32% and the growth yield (72 h) was 90.72 ± 0.52%.
For C#CCN(C)CCCOc1ccc(Cl)cc1Cl [Clorgyline hydrochloride] + CCCCNC(=O)OCC#CI [3-iodo-2-propynyl butylcarbamate (IPBC)], the growth yield (40 h) was 60.36 ± 0.32% and the growth yield (72 h) was 87.2 ± 2.2%.
Compound O=C(O)CN(CCN(CC(=O)O)CC(=O)O)CCN(CC(=O)O)CC(=O)O [Pentetic acid] + CCCCNC(=O)OCC#CI [3-iodo-2-propynyl butylcarbamate (IPBC)] has a growth yield (40 h) of 18.7 ± 1.6%.
For O=C(O)CCNC(=O)c1ccc(/N=N/c2ccc(O)c(C(=O)O)c2)cc1 [Balsalazide Sodium] + CCCCNC(=O)OCC#CI [3-iodo-2-propynyl butylcarbamate (IPBC)], the growth yield (40 h) was 87.4 ± 9.2% and the growth yield (72 h) was 89 ± 5.6%.
In the case of Cc1cccc(Nc2ccccc2C(=O)O)c1C [Mefenamic acid] + CCCCNC(=O)OCC#CI [3-iodo-2-propynyl butylcarbamate (IPBC)], the growth yield (40 h) is reported as 80.2 ± 2.1% and the growth yield (72 h) is reported as 85.89 ± 0.1%.
CCC(C)n1ncn(-c2ccc(N3CCN(c4ccc(OCC5COC(Cn6cncn6)(c6ccc(Cl)cc6Cl)O5)cc4)CC3)cc2)c1=O (configuration not stated) [Itraconazole] + CCCCNC(=O)OCC#CI [3-iodo-2-propynyl butylcarbamate (IPBC)] gave a growth yield (40 h) of 14.3 ± 1.9% and a growth yield (72 h) of 11.3 ± 1.7%.
C[n+]1ccccc1/C=N/O [Pralidoxime chloride] + CCCCNC(=O)OCC#CI [3-iodo-2-propynyl butylcarbamate (IPBC)] showed a growth yield (40 h) of 96.7 ± 2.1% and a growth yield (72 h) of 96.91 ± 0.42%.
Work on O=C1OC(CN2CCOCC2)CN1/N=C/c1ccc([N+](=O)[O-])o1 (configuration not stated) [Furaltadone hydrochloride] + CCCCNC(=O)OCC#CI [3-iodo-2-propynyl butylcarbamate (IPBC)] yielded a growth yield (40 h) of 85.8 ± 13% and a growth yield (72 h) of 92.9 ± 6.7%.
For CC(C)(N)Cc1ccccc1 [Phentermine hydrochloride] + CCCCNC(=O)OCC#CI [3-iodo-2-propynyl butylcarbamate (IPBC)], the growth yield (40 h) was 94.4 ± 6.3% and the growth yield (72 h) was 95.8 ± 4.5%.
With O=C1CCC(N2C(=O)c3ccccc3C2=O)C(=O)N1 (configuration not stated) [Thalidomide] + CCCCNC(=O)OCC#CI [3-iodo-2-propynyl butylcarbamate (IPBC)] the growth yield (40 h) was 95.3 ± 3.2% and the growth yield (72 h) was 101 ± 4.4%.
Work on O=C1NCCN1CCN1CCC(c2cn(-c3ccc(F)cc3)c3ccc(Cl)cc23)CC1 [Sertindole] + CCCCNC(=O)OCC#CI [3-iodo-2-propynyl butylcarbamate (IPBC)] yielded a growth yield (40 h) of 5.24 ± 0.79% and a growth yield (72 h) of 3.46 ± 0.1%.
In the case of Cc1nc2n(c(=O)c1CCN1CCC(c3noc4cc(F)ccc34)CC1)CCCC2O (configuration not stated) [Paliperidone] + CCCCNC(=O)OCC#CI [3-iodo-2-propynyl butylcarbamate (IPBC)], the growth yield (40 h) is reported as 82.28 ± 0.32% and the growth yield (72 h) is reported as 90.09 ± 0.32%.
CCN(CC)CCNC(=O)COc1ccc(OC)cc1 [Mefexamide hydrochloride] + CCCCNC(=O)OCC#CI [3-iodo-2-propynyl butylcarbamate (IPBC)] was tested, and the growth yield (40 h) was 82.44 ± 0.16% and the growth yield (72 h) was 93.3 ± 1.1%.
Clc1ccc(C(Cn2ccnc2)OCc2csc3c(Cl)cccc23)c(Cl)c1 (configuration not stated) [Sertaconazole nitrate] + CCCCNC(=O)OCC#CI [3-iodo-2-propynyl butylcarbamate (IPBC)] gave a growth yield (40 h) of 3.97 ± 0.16% and a growth yield (72 h) of 3.57 ± 0.42%.
Work on CC(=O)OCC1=C(C(=O)O)N2C(=O)[C@@H](NC(=O)Cc3cccs3)[C@H]2SC1 [Cephalothin sodium salt] + CCCCNC(=O)OCC#CI [3-iodo-2-propynyl butylcarbamate (IPBC)] yielded a growth yield (40 h) of 91.7 ± 8.4% and a growth yield (72 h) of 90.9 ± 7.9%.
CCCCc1nc(Cl)c(CO)n1Cc1ccc(-c2ccccc2-c2nnn[nH]2)cc1 [Losartan] + CCCCNC(=O)OCC#CI [3-iodo-2-propynyl butylcarbamate (IPBC)] was tested, and the growth yield (40 h) was 98.3 ± 6.2% and the growth yield (72 h) was 96.7 ± 5.7%.
For CC(C)NCC(O)c1ccc(O)c(O)c1 (single isomer, unassigned; (-)) [(-)-Isoproterenol hydrochloride] + CCCCNC(=O)OCC#CI [3-iodo-2-propynyl butylcarbamate (IPBC)], the growth yield (40 h) was 86.9 ± 2.7% and the growth yield (72 h) was 89.9 ± 1.6%.
O=C1C(O)=C([C@H]2CC[C@H](c3ccc(Cl)cc3)CC2)C(=O)c2ccccc21 [Atovaquone] + CCCCNC(=O)OCC#CI [3-iodo-2-propynyl butylcarbamate (IPBC)] gave a growth yield (40 h) of 92.1 ± 14% and a growth yield (72 h) of 96.5 ± 7.5%.
Compound CC(C)C[C@H]1C(=O)N2CCC[C@H]2[C@]2(O)O[C@](NC(=O)[C@@H]3C=C4c5cccc6[nH]c(Br)c(c56)C[C@H]4N(C)C3)(C(C)C)C(=O)N12 [Bromocryptine mesylate] + CCCCNC(=O)OCC#CI [3-iodo-2-propynyl butylcarbamate (IPBC)] has a growth yield (40 h) of 106.3 ± 0.79% and a growth yield (72 h) of 110 ± 2.8%.
Work on Cc1ccccc1C(OCCN(C)C)c1ccccc1 (configuration not stated) [Orphenadrine hydrochloride] + CCCCNC(=O)OCC#CI [3-iodo-2-propynyl butylcarbamate (IPBC)] yielded a growth yield (40 h) of 81.48 ± 0.79% and a growth yield (72 h) of 94.91 ± 0.94%.
NC(=O)NC1NC(=O)NC1=O (configuration not stated) [Allantoin] + CCCCNC(=O)OCC#CI [3-iodo-2-propynyl butylcarbamate (IPBC)] gave a growth yield (40 h) of 83.71 ± 0.48% and a growth yield (72 h) of 89.2 ± 2.2%.
COC(=O)C1=C(C)NC(C)=C(C(=O)OCC(C)C)C1c1ccccc1[N+](=O)[O-] (configuration not stated) [Nisoldipine] + CCCCNC(=O)OCC#CI [3-iodo-2-propynyl butylcarbamate (IPBC)] was tested, and the growth yield (40 h) was 41.3 ± 8.3% and the growth yield (72 h) was 34.71 ± 0.1%.
COC(=O)C1=C(C)NC(C)=C(C(=O)OCCN(C)Cc2ccccc2)C1c1cccc([N+](=O)[O-])c1 (configuration not stated) [Nicardipine hydrochloride] + CCCCNC(=O)OCC#CI [3-iodo-2-propynyl butylcarbamate (IPBC)] was tested, and the growth yield (40 h) was 73.1 ± 1.6% and the growth yield (72 h) was 94.7 ± 2.2%.
CN1[C@@H]2CC[C@H]1C[C@@H](OC(=O)C(CO)c1ccccc1)C2 (some centres not stated) [Atropine sulfate monohydrate] + CCCCNC(=O)OCC#CI [3-iodo-2-propynyl butylcarbamate (IPBC)] showed a growth yield (40 h) of 89.3 ± 2.2% and a growth yield (72 h) of 93.97 ± 0.21%.
Work on CN1CCN(c2c(F)cc3c(=O)c(C(=O)O)cn4c3c2SCC4)CC1 [Rufloxacin] + CCCCNC(=O)OCC#CI [3-iodo-2-propynyl butylcarbamate (IPBC)] yielded a growth yield (40 h) of 90.2 ± 3.8% and a growth yield (72 h) of 92.29 ± 0.42%.
Cc1cnc(C(=O)NCCc2ccc(S(=O)(=O)NC(=O)NC3CCCCC3)cc2)cn1 [Glipizide] + CCCCNC(=O)OCC#CI [3-iodo-2-propynyl butylcarbamate (IPBC)] gave a growth yield (40 h) of 96.3 ± 5.1% and a growth yield (72 h) of 98.06 ± 0.73%.
O=C1[C@H](CC[C@H](O)c2ccc(F)cc2)[C@@H](c2ccc(O)cc2)N1c1ccc(F)cc1 [Ezetimibe] + CCCCNC(=O)OCC#CI [3-iodo-2-propynyl butylcarbamate (IPBC)] was tested, and the growth yield (40 h) was 88.5 ± 5.9% and the growth yield (72 h) was 93.2 ± 4.7%.
For CCC1NC(=O)c2cc(S(N)(=O)=O)c(Cl)cc2N1 (configuration not stated) [Quinethazone] + CCCCNC(=O)OCC#CI [3-iodo-2-propynyl butylcarbamate (IPBC)], the growth yield (40 h) was 107 ± 6.7% and the growth yield (72 h) was 102 ± 2.9%.
Compound CCN(CC)CCOc1ccc(C(=C(Cl)c2ccccc2)c2ccccc2)cc1 [Clomiphene citrate (Z,E)] + CCCCNC(=O)OCC#CI [3-iodo-2-propynyl butylcarbamate (IPBC)] has a growth yield (40 h) of 3.02 ± 0.16% and a growth yield (72 h) of 2.94%.
For CN(C)[C@@H]1C(O)=C(C(=O)NCNCCCC[C@H](N)C(=O)O)C(=O)[C@@]2(O)C(O)=C3C(=O)c4c(O)cccc4[C@@](C)(O)[C@H]3C[C@@H]12 [Lymecycline] + CCCCNC(=O)OCC#CI [3-iodo-2-propynyl butylcarbamate (IPBC)], the growth yield (40 h) was 107 ± 2.1% and the growth yield (72 h) was 88.94 ± 0.63%.
Work on CN1CCOC(c2ccccc2)c2ccccc2C1 (configuration not stated) [Nefopam hydrochloride] + CCCCNC(=O)OCC#CI [3-iodo-2-propynyl butylcarbamate (IPBC)] yielded a growth yield (40 h) of 83.4 ± 1.1% and a growth yield (72 h) of 93.1 ± 1.1%.
Compound CN1CCC(=C2c3ccccc3CCc3sccc32)CC1 [Pizotifen malate] + CCCCNC(=O)OCC#CI [3-iodo-2-propynyl butylcarbamate (IPBC)] has a growth yield (40 h) of 82.28 ± 0.32% and a growth yield (72 h) of 98.06 ± 0.52%.
O=C(O)[C@H]1/C(=C/CO)O[C@@H]2CC(=O)N21 [Clavulanate potassium salt] + CCCCNC(=O)OCC#CI [3-iodo-2-propynyl butylcarbamate (IPBC)] gave a growth yield (40 h) of 80.2 ± 1.4% and a growth yield (72 h) of 85.1 ± 2.4%.
Cc1cnc(C(=O)O)c[n+]1[O-] [Acipimox] + CCCCNC(=O)OCC#CI [3-iodo-2-propynyl butylcarbamate (IPBC)] was tested, and the growth yield (40 h) was 85.3 ± 0.48% and the growth yield (72 h) was 90.72 ± 0.1%.
With COc1ccc(C(=O)c2ccccc2O)c(O)c1 [Dioxybenzone] + CCCCNC(=O)OCC#CI [3-iodo-2-propynyl butylcarbamate (IPBC)] the growth yield (40 h) was 23.67 ± 0.16% and the growth yield (72 h) was 48.35 ± 0.1%.
CN1CCC[C@@H]1CCO[C@](C)(c1ccccc1)c1ccc(Cl)cc1 [Clemastine fumarate] + CCCCNC(=O)OCC#CI [3-iodo-2-propynyl butylcarbamate (IPBC)] was tested, and the growth yield (40 h) was 53.2 ± 1.8% and the growth yield (72 h) was 92.4 ± 0.94%.
For CCOc1ccc(NC(C)=O)cc1 [Phenacetin] + CCCCNC(=O)OCC#CI [3-iodo-2-propynyl butylcarbamate (IPBC)], the growth yield (40 h) was 71.6 ± 4.9% and the growth yield (72 h) was 89.4 ± 1.5%.
